Assay results taken from PMC6919601, “Identification of Plasmodium dipeptidyl aminopeptidase allosteric inhibitors by high throughput screening” (PLoS ONE, 2019).
Screen size: about 110,000 compounds; about 230 (0.21%) showed an effect of 50% or more. This is one part of the list.

These compounds were tested against DPAP1 (Plasmodium falciparum, UniProt Q8IIJ9) (assay: primary screen, percent inhibition; read by cleavage of a fluorogenic dipeptide substrate; higher = more effect of the substance).
Set-up: species or system P. falciparum D10 trophozoite lysates; single well
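Note: 30 min substrate incubation versus DMSO and 10 µM JCP410 controls.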

Sequence of DPAP1 (Q8IIJ9 whole entry, looked up): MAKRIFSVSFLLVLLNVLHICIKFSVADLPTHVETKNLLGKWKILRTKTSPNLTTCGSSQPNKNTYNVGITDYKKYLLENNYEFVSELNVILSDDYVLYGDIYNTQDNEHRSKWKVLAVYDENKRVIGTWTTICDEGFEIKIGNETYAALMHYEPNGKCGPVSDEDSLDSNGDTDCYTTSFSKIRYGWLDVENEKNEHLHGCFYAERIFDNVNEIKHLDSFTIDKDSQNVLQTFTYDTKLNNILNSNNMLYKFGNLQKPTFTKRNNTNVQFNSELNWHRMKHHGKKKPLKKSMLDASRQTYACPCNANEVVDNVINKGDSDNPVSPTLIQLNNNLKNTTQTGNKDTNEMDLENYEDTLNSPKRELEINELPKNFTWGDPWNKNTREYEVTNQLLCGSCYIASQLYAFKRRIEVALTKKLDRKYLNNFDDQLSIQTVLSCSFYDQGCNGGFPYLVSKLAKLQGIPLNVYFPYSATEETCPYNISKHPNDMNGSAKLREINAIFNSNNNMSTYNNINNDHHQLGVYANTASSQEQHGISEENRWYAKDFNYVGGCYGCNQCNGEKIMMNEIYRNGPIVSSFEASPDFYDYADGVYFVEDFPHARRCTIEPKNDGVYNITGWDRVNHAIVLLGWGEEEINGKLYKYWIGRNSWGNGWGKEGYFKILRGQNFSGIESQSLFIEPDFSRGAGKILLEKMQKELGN

Compound | % Inhibition @ 10 uM
CCCCC12CN3CC(C)(CN(C1)C3c1ccc(O)cc1)C2=O (stereo not drawn) | 3.27%
CCCCc1c(C(=O)O)cccc1C(=O)O | -0.415%
CCOc1ccc(CCNC(=O)c2cc3c(Cl)ccc4c3n2CCO4)cc1 | 2.32%
CCc1ccc(-c2cn3c(n2)sc2cc(OC)ccc23)cc1 | -4.8%
CCC(C)c1ccc(S(=O)(=O)CCc2ccc(C)nc2)cc1 (stereo not drawn) | 3.42%
O=C(/C=C/c1ccc(F)cc1)NC(=S)N1CCCCCC1 | 1.7%
CN(c1cccc(NS(=O)(=O)c2ccc(Cl)cc2)c1)S(C)(=O)=O | -6.65%
COc1ccccc1C(=O)Nc1ccc(N2CCOCC2)cc1 | -6.36%
CC(C)N1C(=O)S/C(=C/c2cccc(Cl)c2)C1=O | 1.86%
COc1ccc(NC(=O)c2sc3nc4c(cc3c2N)CCC4)cc1 | -7.14%
Cc1nnc(N2CCC(C(=O)N3CCC4(CC3)OCCO4)CC2)c2nn(-c3ccccc3)c(C)c12 | 6.47%
COc1ccc(-c2cs/c(=N\c3ccc(Cl)cc3)n2CCCO)cc1F | -4.43%
COc1ccccc1/C=C/c1nc(C#N)c(N2CC(C)CC(C)C2)o1 (stereo not drawn) | -0.808%
COc1cccc(-c2nn(C)c3sc(C(=O)N4CCN(c5ccccn5)CC4)cc23)c1 | 4.51%
Cc1c(CC(=O)O)c2c(n1-c1ccccc1)CC(C)(C)CC2=O | 4.57%
CCCOc1ccc(C2CC(=O)N3C(=C2C#N)SCC3(O)c2cccc(OC)c2)cc1OC (stereo not drawn) | 1.64%
N#CC1=C(N)Oc2cc(N)ccc2C1c1ccc(Cl)cc1 (stereo not drawn) | 1.41%
O=C(Nc1cc(Br)ccc1O)c1cccc2ccccc12 | -1.07%
CN(C)CCN(C)Cc1ccccc1Cl | 3.53%
COc1ccccc1NC(=O)c1cc2ccccc2oc1=O | -0.268%
CCN(CC)C(=O)Cn1c(S(=O)(=O)Cc2ccccc2)nc2ccccc21 | -3.53%
CC1=CC2=NC(=O)/C(=C\c3cccn3CCOc3ccc(C(C)C)cc3)C(=N)N2O1 | 2%
CCOC(=O)c1c(C)c(-c2ccccc2)n(CC(=O)N2CCOCC2)c1C | 0.0579%
COc1cccc(Cn2c(=O)n(Cc3ccco3)c(=O)c3sc4ccccc4c32)c1 | 2.97%
O=C1N=C(N2CCOCC2)S/C1=C\c1ccc(C(=O)O)cc1 | -7.59%

Compound | % Inhibition @ 10 uM
O=C(O)c1ccccc1NC1=NS(=O)(=O)c2ccccc21 | -8.37%
Fc1cccc(Cl)c1CNCc1cccnc1 | -0.968%
Cc1ccc(-c2nnc(SCC(=O)NC3CCCCC3)o2)cc1 | -1.84%
O=C(COc1ccc(S(=O)(=O)NCc2ccccc2)cc1)N1CCc2ccccc2C1 | -2.09%
COc1cc(C(=O)Nc2ccc(S(N)(=O)=O)cc2)cc(OC)c1OC | 5.42%
CN(CC(O)c1ccccc1)C1CC2CCC1C2 (stereo not drawn) | -7.17%
CCOC(=O)c1[nH]c(C)c(CC)c1C | -0.591%
CCOc1ccc(C2c3c(oc4ccccc4c3=O)C(=O)N2Cc2ccc3c(c2)OCO3)cc1OC (stereo not drawn) | -1.33%
CC(C)c1ccc(C2C(C#N)=C(N)Oc3cc(N(C)C)ccc32)cc1 (stereo not drawn) | 3.99%
CCC(=O)Nc1ccc(Oc2ccc(NC(=O)CC)c(NC(=O)CC)c2)cc1 | 8.21%
CC(=O)c1cccc(NC(=O)c2ccc(C(C)(C)C)cc2)c1 | 4.12%
O=S(=O)(c1ccccc1)c1nc(Cc2ccccc2)oc1N1CCOCC1 | -7.75%
O=C(NCc1nc2ccccc2[nH]1)c1nc(-c2cccs2)no1 | 2.79%
CCCNC(=O)c1ccc(CSc2nc3ccncc3n2Cc2ccccc2)cc1 | -0.23%
CCN(CC)c1ccc(/C=C2\SC(=O)N(CC(=O)N3CCOCC3)C2=O)cc1 | -7.96%
Cc1ccc(OCC(=O)N(Cc2ccc(C)o2)C2CCS(=O)(=O)C2)cc1 (stereo not drawn) | -2.85%
CC1(C)CC(=O)C2=C(C1)OC1=C(C(=O)CC(C)(C)C1)C2c1ccc(O)cc1 | -0.127%
CCOc1ccccc1C(=O)Nc1cnn(Cc2ccc(F)cc2)c1 | 11.6%
O=C(NC1CCCc2ccccc21)C1(S(=O)(=O)c2ccc(Cl)cc2)CC1 (stereo not drawn) | 4.63%
COc1ccc(C2OCC(CN3CCCCC3)O2)cc1 (stereo not drawn) | -2.18%
Cc1ccc(C)c(OCC(=O)N2CCN(C(=O)c3ccco3)CC2)c1 | -1.57%
O=C1c2ccccc2C(=O)N1Cc1nc2ccccc2c(=O)n1-c1nccs1 | 0.0504%
CCCc1cc(C(=O)OC)c(NC(=O)CCC(=O)O)s1 | 0.64%
Nc1ccccc1-c1nc2ccccc2nc1O | -5.96%
CCOC(=O)c1c(NC(=O)c2ccccc2C(=O)O)sc2c1CCCC2 | -1.29%

Compound | % Inhibition @ 10 uM
CCCc1[nH]nc2c1C(c1ccc(F)cc1)C(C#N)=C(N)O2 (stereo not drawn) | 0.658%
CCCOc1ccc(CC(=O)Nc2ccc(F)cc2)cc1OC | 11.8%
Cc1c(C(=O)N2CCOCC2)oc2c1-c1nn(CC(=O)NCCc3ccc(Cl)cc3)cc1CC2 | 4.4%
CCCCCc1cc(O)c2c(C)cc(=O)oc2c1 | 4.82%
COc1ccc(NC(=O)CC2S/C(=N\c3cccc(Cl)c3C)N(C)C2=O)cc1 (stereo not drawn) | 1.17%
COCCNC(=O)c1cc2nc(-c3ccc(C)cc3)cc(C(F)(F)F)n2n1 | 0.161%
N#Cc1nc(/C=C/c2cccs2)oc1NC1CC1 | -1.71%
COc1cc(CNC(=O)c2cc(C)[nH]n2)cc(OC)c1OC | -1.08%
CC12C(=O)N(c3ccc(Cl)c(Cl)c3)C(=O)C1C1C=CC2C1 (stereo not drawn) | 3.84%
Cc1ccc(C)c(OCCN2CCCC2)c1 | -0.603%
CCCCCOc1ccc(NC(=O)C2CC(=O)N(c3ccc(Br)cc3)C2)cc1 (stereo not drawn) | 0.385%
Cc1cccc(CNc2nc(N)n(-c3ccccc3)n2)c1 | 0.778%
O=C(Nc1cnn(C23CC4CC(CC(C4)C2)C3)c1)c1cc(-c2ccccc2O)no1 | 1.64%
COc1ccc(C2=N/C(=C/c3ccc(C(C)C)cc3)C(=O)O2)cc1OC | -3.62%
O=C(CSc1nnc(-c2ccccc2)o1)N1CCCCC1 | 4.58%
CN1C(=O)NC(=O)/C(=C\c2ccc(-c3ccc(OC(F)(F)F)cc3)o2)C1=O | 0.9%
O=C(c1cnn2c(C(F)(F)F)cc(-c3ccccc3)nc12)N1CCCCC1 | -1.99%
COc1cc2c(cc1OC)C(=O)C(C)(C)N(Cc1ccccc1)C2 | 0.774%
Cc1cc(Cl)ccc1OCC(=O)Nc1ccc(S(=O)(=O)N2CCCCCC2)cc1 | 4.11%
Cc1ccccc1-c1nnc(SCC(=O)N2CCCCC2C)o1 (stereo not drawn) | -2.8%
C=C1CC(OC(C)=O)C(C)(C)CC2=C(C)CCC12 (stereo not drawn) | 4.73%
O=C(CSc1nc2c(c(=O)n1CCc1ccccc1)SCC2)NC1CCCC1 | -0.264%
CCOC(=O)NC(=O)/C=C(\C)NCCc1ccccc1 | 20.6%
O=C(Nc1ccccc1F)c1ccco1 | -3.26%
CCOC(=O)c1c(C)n(C)c2ccc(OCC(O)Cn3c(C)nc4ccccc43)cc12 (stereo not drawn) | -1.33%

Compound | % Inhibition @ 10 uM
CC(C)CC(C(=O)NCC#N)c1cccc(-c2ccc(N(C)C)cc2)c1 (stereo not drawn) | 1.7%
CCCCn1c(SCC(=O)Nc2ccccc2Cl)nc2c1c(=O)n(C)c(=O)n2C | -7.4%
CC(C)c1ccc(/C=C2/C(=N)N3C(=NC2=O)SN=C3S(=O)(=O)C(C)C)cc1 | 0.163%
O=C1CCCC2=C1C(c1ccc([N+](=O)[O-])cc1)Nc1ccc3ncccc3c12 (stereo not drawn) | -0.736%
CC(C)(C)C(=O)NCc1cn2ccsc2n1 | 4.14%
Cn1c(CNC(=O)c2ccc(F)cc2)nc2ccccc21 | -4.86%
COc1cc(CN2CCN(Cc3ccc4ccccc4c3)CC2)cc(OC)c1OC | 7.1%
CN(Cc1ccc(-n2cccn2)cc1)C(=O)c1cnn2c1NC(c1ccco1)CC2C(F)(F)F (stereo not drawn) | -0.725%
O=C(Cn1c(=O)c2sccc2n(Cc2cccc(Cl)c2)c1=O)NCc1ccco1 | -3.77%
CCOC(=O)c1sc(NC(=O)CCCCCN2C(=O)c3ccccc3C2=O)nc1C | 4.86%
COc1ccc(C(=O)/C=C/c2ccc([N+](=O)[O-])cc2)c(OC)c1 | 0.467%
Cc1ccc(C(CC(=O)NC2CCCC2)N2Cc3ccccc3C2=O)cc1 (stereo not drawn) | 2.98%
Cc1ccccc1-n1c(SCc2c(F)cccc2F)nc2nncc-2c1O | -2.38%
CCn1c(=N)n(CCOc2cccc(C)c2)c2ccccc21 | 0.528%
CCN1C(=O)C2C3C=CC(C3=C3C4CC5CC(C4)CC3C5)C2C1=O (stereo not drawn) | -4.76%
CNC(=O)C1CCN(S(=O)(=O)c2ccc(OC)c(OC)c2)CC1 | -3.74%
COc1ccc(-c2cc3c(=O)n(CC(=O)NC(C)CCc4ccccc4)ncn3n2)cc1 (stereo not drawn) | 2.27%
CC(C)(C)Nc1nc(Oc2ccc(O)nn2)nc(N2CCOCC2)n1 | -0.958%
CC1(C)Cc2ccccc2-c2nnc(-c3ccncc3)n21 | -0.436%
CCCOc1ccc(C(=O)C2=C(O)C(=O)N(CCN(C)C)C2c2ccccc2F)cc1C (stereo not drawn) | 3.15%
CCCCOc1ccc(S(=O)(=O)N2CCN(c3ccc(F)cc3)CC2)cc1 | 2.03%
COc1ccc(C(=O)N2C3C=CC(C3)C2(C(F)(F)F)C(F)(F)F)cc1 (stereo not drawn) | 1.72%
NS(=O)(=O)c1cc(C(=O)Nc2ccc3c(c2)OCO3)c(Cl)cc1Cl | -2.58%
CN1CCCN(C(=O)/C(=C/c2cccc(F)c2)NC(=O)c2ccccc2Br)CC1 | 1.02%
